# According to PubChem BioAssay AID1345083 (National Center for Advancing Translational Sciences (NCATS), 2018):
# Values joined by “and” are separate entries in the source; they are usually repeats but may differ in a detail not shown here. Equal values may be shown once. Screen size: about 94,000 compounds; about 6,200 (6.6%) were called active. Inconclusive results, whose numbers are uncertain, are shown with a selection of clear calls. Calls come from the whole dose curve; as a rule, active = well fitted inhibition curve with a large enough effect; inconclusive = small, poorly fitted or top-dose-only effect; inactive = flat fitted curve, though single readings scatter. Potencies of inconclusive entries are doubtful fits and often do not repeat.
# Test: Cytotoxic Profiling in HEK 293 Cell Line of Diverse Libraries Using Quantitative High-Throughput Screening; note: nearly all actives have a fitted effect of over 60% in size
# Settings: HEK 293 viability, ATP luminescence (CellTiter-Glo), 48-72 h; activity change, negative = cytotoxicity: at 115 µM (top of the series) unless noted; series mostly up to 115 µM
# Summary of the method: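 Cytotoxicity was scored by loss of ATP-coupled luminescence (CellTiter-Glo) in HEK 293 cells. Compound treatment ran 48 or 72 hr at 37 degree Celsius, 5% CO2, 95% humidity.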
# % is set by controls: 0 for no effect and ±100 for the full control effect; potency is the fitted concentration of half-maximal effect; tags give direction and shape of the fitted curve.
Structure (SMILES),Potency,"activity change, negative = cytotoxicity",outcome
CCC1Oc2ccc(NC(=O)Cc3cccc(OC)c3)cc2CN(Cc2ccc3c(c2)OCO3)C1=O (centres undefined),"inconclusive: 35.5 µM [inhibitor, full curve]",–,–
CCOc1ccccc1NC(=O)C1c2ccccc2C(=O)N(CCOC)C12CCCCC2 (centres undefined),–,inactive: -37%,–
CCO[C@H]1CN(Cc2ccccc2OCC(=O)N2CCC(C)CC2)C[C@@H]1O,–,inactive: -23.6%,–
COc1ccccc1-c1cccc(CN2CCC(NC(=O)C3CCCC3)CC2)c1,"inconclusive: 50.1 µM [inhibitor, partial curve, poor fit]",–,–
CNC(=O)c1cc(C2CC2)nc2c1c(C1CCCN1C(=O)c1ccc(OC)cc1)nn2C (centres undefined),–,inactive: -3.53%,–
CN(C(=O)c1ccccc1)C1CCc2ccccc21 (centres undefined),"inconclusive: 112 µM [inhibitor, partial curve, poor fit]",–,–
Cc1onc(-c2cnn(C)c2NCc2ccc(C#N)cc2)c1C(=O)N(C)c1ccccc1,"inconclusive: 112 µM [inhibitor, partial curve, poor fit]",–,–
O=C(c1ccccc1Cl)N1CCCC2(CNc3ncccc3[S+](=O)([O-])N2)C1 (centres undefined),–,inactive: -6.52%,–
Cc1[nH]cnc1C(=O)N1CCOc2c(O)cc(-c3csc4ccccc34)cc2C1,active: 44.7 µM,–,–
CN1CC(=O)N(C2CCNCC2)Cc2c(NCCOc3ccccc3)ncnc21,–,inactive: -9.94%,–
CCN(CC)C(=O)CCc1c(C)nn(-c2ccc(F)cc2)c1Oc1ccccc1,"inconclusive: 31.6 µM [inhibitor, partial curve, poor fit]",–,–
CC(C)NC(=O)NC[C@H]1OC[C@@H](NCc2cccnc2)[C@@H]1O,–,inactive: -1.22% [at 172 µM],–
O=C(c1c[nH]c(=O)[nH]1)N1CC[C@@H]2[C@@H](CCC(=O)N2CC2CCNCC2)C1,"inconclusive: 56.2 µM [inhibitor, partial curve, poor fit]",–,–
CN(C)C(=O)C1CCc2nnc(C3CCN(C(=O)c4ccc(Cl)cc4Cl)CC3)n21 (centres undefined),–,–,inactive
COc1cccc(NC(=O)c2ccc3c(c2)N(C)C2CCCCCN2C3=O)c1 (centres undefined),"inconclusive: 50.1 µM [inhibitor, partial curve, poor fit]",–,–
CCNC(=O)N1CCC(Cc2ccc(C(N)=O)cc2)CC1,–,–,inactive
O=C(NCC1Cn2cccc2CN1Cc1ccccc1)c1ccco1 (centres undefined),"inconclusive: 89.1 µM [inhibitor, single point]",–,–
C#CCNC(=O)c1ccc2oc(-c3cccnc3)nc2c1,"inconclusive: 126 µM [inhibitor, single point]",–,–
CCC(C)Nc1ccc2nncn2n1 (centres undefined),–,inactive: -2.27%,–
COc1ccc(C(=O)N2CCCN(C)c3ccccc32)cc1,"inconclusive: 56.2 µM [inhibitor, partial curve, poor fit]",–,–
Clc1cc(NCCC2CCCCC2)n2nccc2n1,"inconclusive: 31.6 µM [inhibitor, partial curve, poor fit]",–,–
COc1ccc(-c2cccc(C(=O)N3CCC(Cc4ccccc4)CC3)c2)nn1,"inconclusive: 50.1 µM [inhibitor, partial curve, poor fit]",–,–
O=C(c1nc(-c2cccc(C(F)(F)F)c2)c2ccccn12)N1CCOCC1,"inconclusive: 50.1 µM [inhibitor, partial curve, poor fit]",–,–

Structure (SMILES),Potency,"activity change, negative = cytotoxicity",outcome
O=C(NCCc1ccc(Cl)cc1)c1nc2cccnc2n(C2CC2)c1=O,–,inactive: -26%,–
O=C1c2c(nc(COc3ccc(Cl)cc3)n2Cc2ccccc2)NCCN1CCOc1ccccc1,"inconclusive: 20 µM [inhibitor, full curve]",–,–
Cc1noc(C)c1-c1cc2c(c(-c3ccccc3F)c1)C(=O)N(C)C2,"inconclusive: 56.2 µM [inhibitor, partial curve, poor fit]",–,–
O=C(c1ccc(Cl)nc1)N1CCC(C(=O)N2CCC(c3ccccc3)CC2)CC1,"inconclusive: 39.8 µM [inhibitor, full curve, poor fit]",–,–
COc1ccc(C(O)Cn2ccn3nc(-c4ccc(C(C)C)cc4)cc3c2=O)cc1 (centres undefined),–,inactive: 1.85%,–
CC(C)c1nc2nccc(-c3ccc4c(c3)OCCCO4)n2n1,"inconclusive: 44.7 µM [inhibitor, partial curve, poor fit]",–,–
COC(=O)CNC(=O)C1=NOC2CN(C(=O)C3CC3)CC12 (centres undefined),–,inactive: 3.31%,–
Cc1cn2cc(C(=O)N3CCCCC3c3ccc(F)cc3)ccc2n1 (centres undefined),"inconclusive: 100 µM [inhibitor, single point]",–,–
O=C1NCc2ccccc2CC12CCCCN2Cc1cccc(F)c1F (centres undefined),active: 50.1 µM,–,–
COc1ccc(C2Cn3nnc(-c4nc(-c5ccccc5C)no4)c3CO2)cc1 (centres undefined),–,inactive: -29.3%,–
Cc1ccc(-c2nc(C3CC(=O)N(C4CCCCC4)C3)no2)s1 (centres undefined),"inconclusive: 89.1 µM [inhibitor, single point]",–,–
COc1ccc(-c2nccn3cc(C(=O)NCCN4CCCCC4)nc23)cc1,"inconclusive: 50.1 µM [inhibitor, partial curve, poor fit]",–,–
O=C(Nc1ccc(Cl)cc1)N1CCC(C(=O)N2CCC(c3nc4ncccc4[nH]3)CC2)C1 (centres undefined),–,inactive: 2.53%,–
NC(=O)c1cccc(CN2CCC3(C2)CN(C(=O)C2CCCC2)c2ccccc2CO3)c1 (centres undefined),"inconclusive: 39.8 µM [inhibitor, partial curve]",–,–
Cc1ccc(C2=NC3(CCN(C(=O)Cc4ccccc4C)CC3)ON2)cc1,"inconclusive: 79.4 µM [inhibitor, single point]",–,–
CCOc1ccccc1C(=O)N1CCN(c2cc(-c3ccc(OC)cc3)[nH]n2)CC1,"inconclusive: 50.1 µM [inhibitor, partial curve, poor fit]",–,–
COc1ccccc1CNC(=O)CNC(=O)c1cccc(-c2ccc(C(F)(F)F)cc2)c1,active: 35.5 µM,–,–
CC[C@H]1CN(C(=O)c2ccc(F)cc2)CC[C@H]1CC(=O)NC1CCCC1,"inconclusive: 112 µM [inhibitor, single point]",–,–
c1ccc(-c2cc(CC3(NCC4CCCCC4)COC3)no2)cc1,active: 100 µM,–,–
COCCn1c(CN2CCn3nc(C#N)cc3C2)nnc1C1CC(N)C1 (centres undefined),–,inactive: 2.48%,–
CCn1ccc2oc(C)c(C(=O)N3CCN(c4cccc(C)c4C)CC3)c2c1=O,active: 50.1 µM,–,–
COc1cc(NC(=O)CC2CCCN(c3cn[nH]c(=O)c3)C2)cc(OC)c1 (centres undefined),"inconclusive: 100 µM [inhibitor, single point]",–,–
COc1ccccc1-c1ccc(CN2CCCCC2C(=O)NCc2ccccc2Cl)cc1 (centres undefined),"inconclusive: 35.5 µM [inhibitor, full curve, poor fit]",–,–

Structure (SMILES),Potency,"activity change, negative = cytotoxicity",outcome
C=CCO[C@@H]1CCN2C(=O)c3cc(-c4ccccc4F)ccc3NC(=O)[C@H]12,"inconclusive: 112 µM [inhibitor, partial curve, poor fit]",–,–
COc1ccc(Cn2c(=O)c(C(=O)N3CCN(C(=O)C(C)(C)C)CC3)nc3cccnc32)cc1,–,inactive: -13.1%,–
O=C(NCc1ccc(F)c(F)c1)c1ccc2nnc(-c3cccnc3)n2c1,–,inactive: -3.74%,–
CCc1nnc(NC(=O)C2c3ccccc3C(=O)N(CCOC)C23CCCCC3)s1 (centres undefined),–,inactive: -1.19%,–
Fc1ccc(CN2CCOC[C@H]2c2ncc(-c3cccnc3)[nH]2)cc1,–,inactive: -1.71% [at 172 µM],–
Cc1cc(F)ccc1NC(=O)C1CCN(C(=O)c2ncn3c2COC(c2ccc(F)cc2)C3)CC1 (centres undefined),–,inactive: -6.8%,–
O=C(c1ccoc1)N1CC(Oc2cccc(-c3nc(-c4ccccc4)no3)c2)C1,"inconclusive: 50.1 µM [inhibitor, partial curve, poor fit]",–,–
C[C@H]1[C@@H]2[C@@H](O)C([C@H](C)C(=O)NCc3cccnc3)CC[C@@]2(C)CC[C@@H]1NC(=O)c1ccc(C#N)cc1 (some centres undefined),–,inactive: -16.2%,–
CCNC(=O)N1CCC(c2noc(-c3ccccc3)n2)C1 (centres undefined),–,inactive: -1.77%,–
Cc1ccccc1NC(=O)Nc1ccnn1C1CCN(C(=O)[C@@H](N)CO)CC1,–,inactive: -27.2%,–
COc1ccc(Cn2c(C3CCN(C(=O)c4ccc(C#N)cc4)CC3)n[nH]c2=O)cc1,–,inactive: 6.33%,–
c1coc(-c2nc3ccncc3[nH]2)c1,"inactive and inconclusive: 126 µM [inhibitor, partial curve, poor fit]",–,–
COC[C@@H]1[C@H](C(=O)Nc2cc(C)ccc2OC)CCC(=O)N1C,–,inactive: 1.3%,–
O=C1CC(c2ccccc2)N(Cc2ccncc2)CCCN(C(=O)CC2CCCC2)CCN1 (centres undefined),–,inactive: -8.86%,–
O=C1CC2(CCN(C(=O)C3CCCN3C(=O)c3ccc(F)cc3)CC2)Oc2ccccc2N1 (centres undefined),–,inactive: -6.22%,–
O=C(Nc1cccc(Cl)c1)c1cc2n(n1)CC(c1ccc3c(c1)OCO3)OC2 (centres undefined),"inconclusive: 79.4 µM [inhibitor, partial curve, poor fit]",–,–
COc1ccccc1CN1C[C@H]2[C@H](C1)[S+](=O)([O-])C(C)(C)C(=O)N2Cc1ccccc1,"inconclusive: 100 µM [inhibitor, partial curve]",–,–
Cc1csc(SCC(=O)N[C@H]2[C@H]3CCO[C@H]3[C@@H]2NS(C)(=O)=O)n1,–,–,inactive
Cc1ccc(NC(=O)N2CCC3(CC2)C(=O)N(CC(=O)N2CCCC2)CN3c2ccccc2)cc1,"inconclusive: 100 µM [inhibitor, single point]",–,–
COc1ccccc1CN(C)[C@H]1[C@H](Oc2ccccn2)C[C@@H]2CC(C)(C)OC[C@]21O,"inconclusive: 39.8 µM [inhibitor, single point]",–,–
O=[S+]([O-])(N[C@@H]1C[C@@H]2CO[C@H](c3ccccc3)C[C@@H]2C1)c1ccc(Cl)cc1,"inconclusive: 56.2 µM [inhibitor, partial curve, poor fit]",–,–
O=C1CC2(CCN(Cc3ccsc3)CC2)Oc2ccccc21,"inconclusive: 100 µM [inhibitor, partial curve, poor fit]",–,–
CN1[C@@H](CCC(=O)NCc2cccnc2)CNC(=O)[C@@H]2[C@H]1CCN2Cc1nc2ccccc2n1C,–,inactive: -8.65%,–
